# Source: patent publication US12528870B2, “Anti-c-Met antibody-drug conjugate and applications thereof” (REMEGEN CO., LTD., priority 2020, dated 2026)
# B1: AAJ8D6: humanized monoclonal antibody targeting c-Met; heavy chain SEQ ID NO: 9, light chain SEQ ID NO: 10 (antibody)
# heavy: QVQLEQSGPEVVKPGASVKVSCKASGYSFTSYWMHWVRQAPGQGLEWMGMIDPSDSESRLNQKFKDRVTMTVDTPTSTVYMELSSPRSEDTAVYYCARSGYHGTSYWYFDVWGQGTLVTVSS[human IgG1 constant region not given here]
# light: DIVMTQSPLSLPVTPGEPASISCRSSKSLLHSDGITYLYWYLQKPGQSPQLLIYQMSNLASGVPDRFSGSGSGTDFTLKISRVEAEDVGVYYCAQNLELPPTFGGGTKVEIKRTVAAPSVFIFPPSDEQLKSGTASVVCLLNNFYPREAKVQWKVDNALQSGNSQESVTEQDSKDSTYSLSSTLTLSKADYEKHKVYACEVTHQGLSSPVTKSFNRGEC
# modifications: The sequence is synthesized
# Experiments:
# HT29 cells = test: Endocytosis experiment (pHAb dye, flow cytometry); type: cell-based, human; details: 10 μg/ml dye complex, 37° C.
# From the text: HT29 cells were resuspended in 6-well plates at approximately 1×10^5 cells per well.
# [1] = test system: lung cancer LU2503 PDX tumor; test: Mouse PDX model of lung cancer LU2503; type: in vivo, mice; details: 10 mg/kg i.v. once a week x2
# From the text: The mouse PDX (patient-derived xenograft) model of lung cancer LU2503 was constructed by transplanting tumor tissue from human patients with lung cancer into severely immunodeficient mice, in which the gastric cancer tissue grew to form a transplanted tumor.
# The tumor-bearing mice with good tumor growth were picked and euthanized, and the tumors were removed and cut into small pieces (2-3 mm in diameter), which were then inoculated on the right shoulder of the mice to establish a subcutaneous lung cancer model. […] The long diameter and short diameter of tumor and body weight were measured twice a week during the administration. On Day 21 after administration, the tumor inhibition rate (TGIRTV) was calculated for efficacy evaluation.
# Calculation formula: • Tumor volume: TV=D1×D2^2/2, where D1 and D2 represent the long diameter and the short diameter of the tumor, respectively; • Relative tumor volume: RTV=TVn/TV0, where TV0 is the tumor volume before administration, and TVn is the tumor volume at each measurement; • Relative tumor inhibition rate: TGIRTV(%)=(1-TRTV/CRTV) 100%, TRTV means RTV of drug administration group or positive control group, and CRTV means RTV of negative control group.
# [2] = test system: MKN-45, SNU-620, HT29, BXPC-3 cells; test: Cytotoxic activity, CCK-8, cells with different c-Met expression levels; type: cell-based, human; details: 72±2 h, 1.25-2000 ng/mL
# Description: Cells MKN-45, SNU-620, HT29, and BXPC-3 with different c-Met expression levels in exponential doubling phase were seeded in 96-well plates, respectively, and incubated overnight in a 37° C., 5% CO2 incubator. […] They were added to the plate at 100 μL per well with triplicate wells set up for each concentration, and a blank control group was set as well. After 72±2 h of drug action, the plate was added with CCK-8 reagent, incubated at 37° C., 5% CO2 incubator for 1 to 4 h, and detected for OD value of each well at 450 nm of a microplate reader. […] Four-parameter fitting was performed on the inhibition rate and drug concentration to calculate IC50.
# [3] = target: T1, soluble ED protein (c-Met) (Homo sapiens, UniProt P08581); test: ELISA affinity comparison of chimeric cAAJ8D6 and humanized AAJ8D6; type: binding; details: plate coated with soluble ED protein
# T1 construct: A 96-well plate was coated with soluble ED protein and then incubated with diluted antibodies
# Description: The affinities of chimeric cAAJ8D6 and the humanized antibody AAJ8D6 were determined by ELISA. A 96-well plate was coated with soluble ED protein and then incubated with diluted antibodies. ED-related antibodies were detected with an HRP-conjugated goat F(ab′)2 anti-human IgG Fc-specific secondary antibody.
# [4] = test system: human gastric cancer cell MKN-45 subcutaneously transplanted tumors; test: MKN-45 subcutaneously transplanted tumor in Balb/c nude mice; type: in vivo; details: 3 mg/kg i.v. once a week x3
# Description: 42 Balb/c nude mice aged 6-7 weeks were taken, and 0.1 mL of MKN-45 cell suspension (2.4×10^6 cells/mouse) was subcutaneously implanted in the back of the right armpit of the mice. […] Each group was administered intravenously, once a week, for a total of 3 times, and measured for long diameter and short diameter of tumor and body weight twice a week during the administration. On Day 21 after administration, the tumor inhibition rate (TGIRTV) was calculated for efficacy evaluation.
# Tumor volume: TV=D1×D2^2/2, where D1 and D2 represent the long diameter and the short diameter of the tumor, respectively;
# Relative tumor volume: RTV=TVn/TV0, where TV0 is the tumor volume before administration, and TVn is the tumor volume at each measurement;
# Relative tumor inhibition rate: TGIRTV(%)=(1-TRTV/CRTV) 100%, TRTV means RTV of drug administration group or positive control group, and CRTV means RTV of negative control group.
# c-Met protein = c-Met protein (Homo sapiens, UniProt P08581); test: ELISA binding ability to c-Met antigen; details: c-Met protein coated at 2 μg/ml
# Description: The c-Met protein was prepared with a diluent to a final concentration of 2 μg/ml, and added to a microplate at 100 μl per well, overnight at 4° C. The solution in the well was discarded, and the plate was washed three times with PBST. The plate was added with a blocking solution at 300 μl/well and incubated at 37° C. for 2 h. The solution in the well was discarded, and the plate was washed three times with PBST. AAJ8D6 antibody and ABT-700 (i.e., telisotuzumab, its sequence information can be found at https://extranet.who.int/soinn/mod/page/view.php?id=137&inn n=10366, the same below) were diluted to 9 concentrations, added to the 96-well plate and incubated for 2 h. The solution in the well was discarded, and the plate was washed three times with PBST. HRP detection antibody was prepared by adding diluent at a dilution of 1:5000, added at 100 μl per well, and incubated at 37° C. for 1 h. The solution in the well was discarded, and the plate was washed three times with PB ST. The plate was added with TMB color developing solution, incubated at room temperature for 2 min, and then added with Elisa stop solution.
# c-Met protein, sequence (P08581 25-1390): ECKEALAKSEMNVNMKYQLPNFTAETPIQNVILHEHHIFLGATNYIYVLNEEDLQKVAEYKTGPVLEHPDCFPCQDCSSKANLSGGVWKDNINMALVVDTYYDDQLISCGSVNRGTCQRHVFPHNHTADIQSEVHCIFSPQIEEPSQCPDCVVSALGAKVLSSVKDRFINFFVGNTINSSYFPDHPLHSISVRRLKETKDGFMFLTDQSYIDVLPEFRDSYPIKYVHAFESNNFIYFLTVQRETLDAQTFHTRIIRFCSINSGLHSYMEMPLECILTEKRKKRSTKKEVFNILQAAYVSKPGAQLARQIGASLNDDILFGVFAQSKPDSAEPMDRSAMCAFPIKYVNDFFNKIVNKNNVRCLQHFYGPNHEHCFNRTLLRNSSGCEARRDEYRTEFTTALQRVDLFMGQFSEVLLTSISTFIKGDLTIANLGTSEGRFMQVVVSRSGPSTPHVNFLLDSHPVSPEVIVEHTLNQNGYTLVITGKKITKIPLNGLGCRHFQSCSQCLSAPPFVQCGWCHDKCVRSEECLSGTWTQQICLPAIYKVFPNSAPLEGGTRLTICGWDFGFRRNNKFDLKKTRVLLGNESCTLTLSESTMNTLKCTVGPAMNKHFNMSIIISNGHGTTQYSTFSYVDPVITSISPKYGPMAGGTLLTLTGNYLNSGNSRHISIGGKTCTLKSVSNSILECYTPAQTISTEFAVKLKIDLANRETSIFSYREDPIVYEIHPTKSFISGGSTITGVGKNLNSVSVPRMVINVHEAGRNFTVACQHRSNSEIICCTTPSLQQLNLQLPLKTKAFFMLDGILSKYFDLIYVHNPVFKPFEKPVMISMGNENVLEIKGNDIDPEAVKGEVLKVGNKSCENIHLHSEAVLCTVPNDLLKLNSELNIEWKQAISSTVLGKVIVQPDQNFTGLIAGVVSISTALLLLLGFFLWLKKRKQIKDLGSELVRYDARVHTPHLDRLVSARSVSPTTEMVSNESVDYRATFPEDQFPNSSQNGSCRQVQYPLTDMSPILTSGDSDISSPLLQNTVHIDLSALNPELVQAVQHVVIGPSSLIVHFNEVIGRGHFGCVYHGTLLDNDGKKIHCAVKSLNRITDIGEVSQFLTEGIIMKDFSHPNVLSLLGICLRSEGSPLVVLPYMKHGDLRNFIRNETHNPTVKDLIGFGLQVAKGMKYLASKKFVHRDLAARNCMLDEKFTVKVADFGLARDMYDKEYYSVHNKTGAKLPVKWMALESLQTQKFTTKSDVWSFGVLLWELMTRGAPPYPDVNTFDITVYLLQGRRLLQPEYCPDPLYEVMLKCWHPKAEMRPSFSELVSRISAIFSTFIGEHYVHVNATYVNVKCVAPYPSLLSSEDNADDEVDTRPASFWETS
# T1 sequence (P08581 25-932 limits assumed): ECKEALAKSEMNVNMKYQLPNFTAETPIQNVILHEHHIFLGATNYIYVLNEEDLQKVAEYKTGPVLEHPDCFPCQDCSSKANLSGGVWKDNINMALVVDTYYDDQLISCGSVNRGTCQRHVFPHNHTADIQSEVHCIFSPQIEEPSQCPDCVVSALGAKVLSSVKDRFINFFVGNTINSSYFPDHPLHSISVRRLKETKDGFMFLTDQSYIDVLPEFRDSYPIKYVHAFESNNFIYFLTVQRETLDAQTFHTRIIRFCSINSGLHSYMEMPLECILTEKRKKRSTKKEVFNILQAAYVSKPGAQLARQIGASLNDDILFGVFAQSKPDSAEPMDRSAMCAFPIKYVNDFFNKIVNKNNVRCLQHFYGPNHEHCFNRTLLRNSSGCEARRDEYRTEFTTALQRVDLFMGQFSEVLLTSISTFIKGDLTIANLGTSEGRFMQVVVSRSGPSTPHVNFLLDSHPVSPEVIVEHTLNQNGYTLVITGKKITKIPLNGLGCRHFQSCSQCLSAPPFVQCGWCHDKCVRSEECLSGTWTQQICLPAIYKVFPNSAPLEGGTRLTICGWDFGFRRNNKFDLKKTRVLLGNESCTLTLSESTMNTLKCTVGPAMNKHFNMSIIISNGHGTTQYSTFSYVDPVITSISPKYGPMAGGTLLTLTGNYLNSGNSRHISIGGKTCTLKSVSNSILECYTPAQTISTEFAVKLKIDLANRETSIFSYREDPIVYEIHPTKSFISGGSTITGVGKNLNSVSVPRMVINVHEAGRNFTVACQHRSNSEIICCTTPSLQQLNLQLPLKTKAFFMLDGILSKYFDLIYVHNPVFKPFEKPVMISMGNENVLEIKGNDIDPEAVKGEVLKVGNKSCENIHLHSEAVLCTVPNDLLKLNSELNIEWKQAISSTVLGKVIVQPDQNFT
molecule,measurement,setting,value
B1,endocytosis effect,HT29 cells; after 3 h,about 90%
same,endocytosis in HT29 cells,HT29 cells; after 24 h,significantly endocytosed
same,Tumor volume (mm^3) TVD0,[1]; Day 0,157.05 ± 9.21 mm^3
same,Inhibition rate (%),[1]; Day 21,37.60%
same,Tumor volume (mm^3) TVD21,[1]; Day 21,1165.02 ± 163.71 mm^3
same,cytotoxic activity / cytotoxic effect on target cells,[2],no cytotoxic effect
same,EC50,[3],3.529 ng/mL
same,TV (mm^3) D 0,[4]; D 0 (before administration),200 ± 24 mm^3
same,TV (mm^3) D 21,[4]; D 21,1633 ± 77 mm^3
same,TGIRTV %,[4]; Day 21,−15%
same,EC50,c-Met protein,0.54 ng/mL
